Reference: the supplement of paper PMC8728848
This is one part of the list.

Key:
Assay in all cases: glycan array binding signal (z-score within array); higher = stronger binding
Details in all cases: glycan notation: IUPAC condensed, linker removed
[1] = target: Fuc(a1-2)Gal(b1-4)GlcNAc(b1-3)Gal(b1-4)GlcNAc(b1-2)Man(a1-3)[Fuc(a1-2)Gal(b1-4)GlcNAc(b1-3)Gal(b1-4)GlcNAc(b1-2)Man(a1-6)]Man(b1-4)GlcNAc(b1-4)GlcNAc
Method in brief: (§1)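 Columns mapping to the same glycan were averaged after glycan names were converted to IUPAC-condensed notation. The data come from 3228 arrays in the Consortium for Functional Glycomics database, limited to those with an available protein sequence. Binding is reported as a within-array Z-score averaged across arrays of one protein sequence and across linkers.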

[2] = target: Fuc(a1-2)Gal(b1-4)GlcNAc(b1-3)Gal(b1-4)GlcNAc(b1-3)Gal(b1-4)GlcNAc
Method in brief: as §1

[3] = target: Fuc(a1-2)Gal(b1-4)GlcNAc(b1-3)GalNAc
Method in brief: as §1

[4] = target: Fuc(a1-2)Gal(b1-4)GlcNAc(b1-3)[Fuc(a1-2)Gal(b1-4)GlcNAc(b1-6)]GalNAc
Method in brief: as §1

[5] = target: Fuc(a1-2)Gal(b1-4)GlcNAc(b1-3)[Fuc(a1-3)[Gal(b1-4)]GlcNAc(b1-6)]Gal(b1-4)Glc
Method in brief: as §1

[6] = target: Fuc(a1-2)Gal(b1-4)GlcNAc(b1-6)GalNAc
Method in brief: as §1

[7] = target: Fuc(a1-2)Gal(b1-4)GlcNAc6S
Method in brief: as §1

[8] = target: Fuc(a1-2)Gal(b1-4)[Fuc(a1-3)]GlcNAc
Method in brief: as §1

[9] = target: Fuc(a1-2)Gal(b1-4)[Fuc(a1-3)]GlcNAc(b1-2)Man(a1-3)[Fuc(a1-2)Gal(b1-4)[Fuc(a1-3)]GlcNAc(b1-2)Man(a1-6)]Man(b1-4)GlcNAc(b1-4)[Fuc(a1-6)]GlcNAc
Method in brief: as §1

[10] = target: Fuc(a1-2)Gal(b1-4)[Fuc(a1-3)]GlcNAc(b1-2)[Fuc(a1-2)Gal(b1-4)[Fuc(a1-3)]GlcNAc(b1-4)]Man(a1-3)[Fuc(a1-2)Gal(b1-4)[Fuc(a1-3)]GlcNAc(b1-2)Man(a1-6)]Man(b1-4)GlcNAc(b1-4)GlcNAc
Method in brief: as §1

[11] = target: Fuc(a1-2)Gal(b1-4)[Fuc(a1-3)]GlcNAc(b1-3)Gal(b1-4)[Fuc(a1-3)]GlcNAc
Method in brief: as §1

[12] = target: Fuc(a1-2)Gal(b1-4)[Fuc(a1-3)]GlcNAc(b1-3)Gal(b1-4)[Fuc(a1-3)]GlcNAc(b1-3)Gal(b1-4)[Fuc(a1-3)]GlcNAc
Method in brief: as §1

[13] = target: Fuc(a1-2)Gal(b1-4)[Fuc(a1-3)]GlcNAc(b1-3)GalNAc
Method in brief: as §1

[14] = target: Fuc(a1-2)Gal(b1-4)[Fuc(a1-3)]GlcNAc(b1-3)[Neu5Ac(a2-6)Gal(b1-4)GlcNAc(b1-6)]Gal(b1-4)Glc
Method in brief: as §1

[15] = target: Fuc(a1-2)Gal3S(b1-4)GlcNAc
Method in brief: as §1

[16] = target: Fuc(a1-2)Gal6S(b1-3)GlcNAc
Method in brief: as §1

[17] = target: Fuc(a1-2)Gal6S(b1-3)GlcNAc6S
Method in brief: as §1

[18] = target: Fuc(a1-2)Gal6S(b1-4)Glc
Method in brief: as §1

[19] = target: Fuc(a1-2)Gal6S(b1-4)Glc6S
Method in brief: as §1

[20] = target: Fuc(a1-2)[Gal(a1-3)]Gal
Method in brief: as §1

[21] = target: Fuc(a1-2)[Gal(a1-3)]Gal(b1-3)GalNAc
Method in brief: as §1

[22] = target: Fuc(a1-2)[Gal(a1-3)]Gal(b1-3)GalNAc(b1-3)Gal(a1-4)Gal(b1-4)Glc
Method in brief: as §1

[23] = target: Fuc(a1-2)[Gal(a1-3)]Gal(b1-3)GlcNAc
Method in brief: as §1

[24] = target: Fuc(a1-2)[Gal(a1-3)]Gal(b1-3)GlcNAc(b1-2)Man(a1-3)[Fuc(a1-2)[Gal(a1-3)]Gal(b1-3)GlcNAc(b1-2)Man(a1-6)]Man(b1-4)GlcNAc(b1-4)GlcNAc
Method in brief: as §1

[25] = target: Fuc(a1-2)[Gal(a1-3)]Gal(b1-3)GlcNAc(b1-2)Man(a1-3)[Fuc(a1-2)[Gal(a1-3)]Gal(b1-3)GlcNAc(b1-2)Man(a1-6)]Man(b1-4)GlcNAc(b1-4)[Fuc(a1-6)]GlcNAc
Method in brief: as §1

[26] = target: Fuc(a1-2)[Gal(a1-3)]Gal(b1-3)GlcNAc(b1-3)GalNAc
Method in brief: as §1

[27] = target: Fuc(a1-2)[Gal(a1-3)]Gal(b1-3)GlcNAc(b1-6)GalNAc
Method in brief: as §1

[28] = target: Fuc(a1-2)[Gal(a1-3)]Gal(b1-4)Glc
Method in brief: as §1

[29] = target: Fuc(a1-2)[Gal(a1-3)]Gal(b1-4)GlcNAc
Method in brief: as §1

[30] = target: Fuc(a1-2)[Gal(a1-3)]Gal(b1-4)GlcNAc(b1-2)Man
Method in brief: as §1

CTAEGIKKFEGDGYELFKDNFPAGEKFDNDDTNDQFYTVIF [MUB40 (Lactobacillus reuteri)] was tested, and the “glycan array binding signal (z-score)” value [1] was 0.648, the “glycan array binding signal (z-score)” value [2] was -0.491 and the “glycan array binding signal (z-score)” value [3] was 0.7. For the same binder, the “glycan array binding signal (z-score)” value [4] was -0.357, the “glycan array binding signal (z-score)” value [5] was -0.453 and the “glycan array binding signal (z-score)” value [6] was -0.677. The “glycan array binding signal (z-score)” value [7] was -0.389, the “glycan array binding signal (z-score)” value [8] was -0.174 and the “glycan array binding signal (z-score)” value [9] was 0.237. For the same binder, the “glycan array binding signal (z-score)” value [10] was -0.447, the “glycan array binding signal (z-score)” value [11] was -0.174 and the “glycan array binding signal (z-score)” value [12] was -0.597. The “glycan array binding signal (z-score)” value [13] was 3.56, the “glycan array binding signal (z-score)” value [14] was -0.177 and the “glycan array binding signal (z-score)” value [15] was -0.186. The “glycan array binding signal (z-score)” value [16] was -0.043, the “glycan array binding signal (z-score)” value [17] was -0.196 and the “glycan array binding signal (z-score)” value [18] was 0.324. For the same binder, the “glycan array binding signal (z-score)” value [19] was 0.134, the “glycan array binding signal (z-score)” value [20] was -0.257 and the “glycan array binding signal (z-score)” value [21] was -0.373. The “glycan array binding signal (z-score)” value [22] was -0.285, the “glycan array binding signal (z-score)” value [23] was -0.002 and the “glycan array binding signal (z-score)” value [24] was -0.107. The “glycan array binding signal (z-score)” value [25] was -0.469, the “glycan array binding signal (z-score)” value [26] was -0.166 and the “glycan array binding signal (z-score)” value [27] was 0.264. For the same binder, the “glycan array binding signal (z-score)” value [28] was -0.405, the “glycan array binding signal (z-score)” value [29] was -0.203 and the “glycan array binding signal (z-score)” value [30] was 2.44.
